According to PMC6614449, “Targeting DNAJB9, a novel ER luminal co-chaperone, to rescue ΔF508-CFTR” (Scientific Reports, 2019):

Biological target: T1, full length FLAG-CFTR (WT-CFTR) (UniProt P13569 1-1480)
T1 construct: Cystic Fibrosis transmembrane-conductance regulator (CFTR), wild type, 1,480 amino acids; Surface CFTR was probed with anti-FLAG on fixed cells, so the FLAG tag may lie in an extracellular loop; also called FLAG-WT-CFTR; Cystic Fibrosis transmembrane-conductance regulator; source: HEK293 cells stably expressing it; purified on anti-FLAG resin (ProtoArray) or in whole-cell lysate (co-IP)
Experiment: peptide or protein array; ProtoArray protein microarray (Invitrogen / ThermoFisher) probed with purified full length FLAG-CFTR in solution; bound CFTR detected with mouse anti-FLAG monoclonal antibody and Alexa-488 secondary antibody, fluorescence scanner; mean of duplicate
Conditions: both partners purified

- binding result: binds
B1: DNAJB1 (on the ProtoArray) (natural protein)
chain: MGKDYYQTLGLARGASDEEIKRAYRRQALRYHPDKNKEPGAEEKFKEIAEAYDVLSDPRKREIFDRYGEEGLKGSGPSGGSGGGANGTSFSYTFHGDPHAMFAEFFGGRNPFDTFFGQRNGEEGMDIDDPFSGFPMGMGGFTNVNFGRSRSAQEPARKKQ[sequence of about 150 residues not given]PERIPQTSRTVLEQVLPI
notes: DNAJB1, protein spotted on the ProtoArray; source: bought: spotted on ProtoArray protein microarray (Invitrogen / ThermoFisher)
